In all, about 360,000 compounds went through this assay and about 16,000 (4.4%) were called active. This list was built around the results that the source calls inconclusive (neither active nor inactive); the mix of calls is not that of the screen. Calls follow the shape of the dose curve; as a rule, active = well fitted inhibition curve with a large enough effect; inconclusive = small, poorly fitted or top-dose-only effect; inactive = no such curve, though single readings can be large or run the other way. Where the call is inconclusive, the potency comes from a doubtful curve fit.
Target: Bromodomain adjacent to zinc finger domain protein 2B (Homo sapiens) (UniProt Q9UIF8)
Sequence of UniProt Q9UIF8 (Q9UIF8 whole entry, looked up, the tested form may be a part): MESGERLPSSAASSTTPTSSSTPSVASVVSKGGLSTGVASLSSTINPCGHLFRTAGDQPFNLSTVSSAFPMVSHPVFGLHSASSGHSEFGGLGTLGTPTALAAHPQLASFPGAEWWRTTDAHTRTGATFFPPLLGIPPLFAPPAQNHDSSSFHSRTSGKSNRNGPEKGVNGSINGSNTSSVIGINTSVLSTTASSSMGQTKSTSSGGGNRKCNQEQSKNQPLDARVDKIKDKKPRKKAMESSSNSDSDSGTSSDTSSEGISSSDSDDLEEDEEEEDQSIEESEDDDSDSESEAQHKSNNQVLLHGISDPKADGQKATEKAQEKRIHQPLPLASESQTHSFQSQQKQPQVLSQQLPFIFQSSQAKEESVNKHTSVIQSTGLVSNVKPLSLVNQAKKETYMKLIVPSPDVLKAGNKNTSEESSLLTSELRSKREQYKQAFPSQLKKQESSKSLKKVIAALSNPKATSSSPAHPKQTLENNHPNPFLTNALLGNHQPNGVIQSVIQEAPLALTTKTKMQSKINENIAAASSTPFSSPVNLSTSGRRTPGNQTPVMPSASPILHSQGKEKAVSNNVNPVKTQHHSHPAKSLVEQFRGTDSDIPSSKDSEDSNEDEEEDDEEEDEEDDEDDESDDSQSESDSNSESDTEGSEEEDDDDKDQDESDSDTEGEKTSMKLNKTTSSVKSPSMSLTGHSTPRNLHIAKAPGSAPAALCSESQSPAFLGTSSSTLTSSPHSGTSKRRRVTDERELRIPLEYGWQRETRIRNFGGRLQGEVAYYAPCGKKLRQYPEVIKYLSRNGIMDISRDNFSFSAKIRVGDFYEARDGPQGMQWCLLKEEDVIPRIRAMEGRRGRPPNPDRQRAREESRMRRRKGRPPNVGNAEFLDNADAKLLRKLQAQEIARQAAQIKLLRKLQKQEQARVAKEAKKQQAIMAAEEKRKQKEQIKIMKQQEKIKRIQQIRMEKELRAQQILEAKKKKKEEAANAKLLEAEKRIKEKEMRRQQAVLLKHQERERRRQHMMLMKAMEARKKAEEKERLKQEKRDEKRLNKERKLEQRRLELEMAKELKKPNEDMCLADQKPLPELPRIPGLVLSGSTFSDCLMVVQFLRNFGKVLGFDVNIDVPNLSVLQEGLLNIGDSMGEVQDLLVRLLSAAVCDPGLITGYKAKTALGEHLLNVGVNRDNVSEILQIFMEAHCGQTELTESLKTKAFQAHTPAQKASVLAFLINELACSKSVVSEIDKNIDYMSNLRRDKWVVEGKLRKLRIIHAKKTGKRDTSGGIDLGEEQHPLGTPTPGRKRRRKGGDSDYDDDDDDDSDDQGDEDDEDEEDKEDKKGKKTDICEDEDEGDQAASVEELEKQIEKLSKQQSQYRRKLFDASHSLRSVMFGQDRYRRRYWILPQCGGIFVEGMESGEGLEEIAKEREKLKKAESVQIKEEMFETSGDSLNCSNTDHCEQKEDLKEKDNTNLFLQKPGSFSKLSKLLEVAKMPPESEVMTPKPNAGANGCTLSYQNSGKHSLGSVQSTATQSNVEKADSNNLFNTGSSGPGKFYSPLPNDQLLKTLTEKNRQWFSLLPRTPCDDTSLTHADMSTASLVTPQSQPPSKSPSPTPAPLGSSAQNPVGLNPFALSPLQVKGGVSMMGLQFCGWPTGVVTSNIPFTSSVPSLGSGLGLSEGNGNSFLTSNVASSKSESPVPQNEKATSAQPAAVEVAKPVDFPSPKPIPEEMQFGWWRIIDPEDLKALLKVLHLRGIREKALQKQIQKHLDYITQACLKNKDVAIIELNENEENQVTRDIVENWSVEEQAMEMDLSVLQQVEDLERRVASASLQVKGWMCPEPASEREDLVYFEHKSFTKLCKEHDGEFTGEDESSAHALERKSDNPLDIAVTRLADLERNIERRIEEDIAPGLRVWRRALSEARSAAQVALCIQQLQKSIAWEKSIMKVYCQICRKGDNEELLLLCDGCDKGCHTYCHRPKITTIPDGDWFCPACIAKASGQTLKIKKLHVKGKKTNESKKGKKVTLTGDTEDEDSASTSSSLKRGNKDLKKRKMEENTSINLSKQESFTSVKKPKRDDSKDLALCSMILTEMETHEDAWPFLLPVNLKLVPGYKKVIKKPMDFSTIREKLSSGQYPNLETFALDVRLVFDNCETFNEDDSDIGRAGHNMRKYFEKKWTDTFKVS
Assay: qHTS Assay for Inhibitors of BAZ2B; also: nearly all actives have a fitted effect of over 60% in size
Settings: AlphaScreen BAZ2B-H3K14Ac peptide displacement; series mostly up to 114 µM
How it was run: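 Complex of BAZ2B and biotin-H3K14Ac (50 nM apiece) forms over 30 min at RT, then faces library compounds up to 110 uM for another 30 min; AlphaScreen beads added, 20 min dark incubation, luminescence read.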
Potency is read from the fitted curve at half-maximal effect; tags tell the direction and shape of the fitted curve.

Row | Structure (SMILES) | Potency
1 | CN(C)c1ccc(NC(=S)N(CCc2ccccc2)C2CC(=O)N(c3c(Cl)cccc3Cl)C2=O)cc1 (stereo not given) | inconclusive: 70.8 µM [inhibitor, partial curve]
2 | O=C(O)c1ccc(Cl)c(S(=O)(=O)N(Cc2ccccc2)c2ccccc2)c1 | inactive
3 | O=Cc1ccc(-c2cccc(C(=O)O)c2)o1 | inconclusive: 79.4 µM [inhibitor, single point]
4 | COc1ccc(N2CCN(CC(=O)NCc3ccc(Cl)cc3)CC2)cc1 | inconclusive: 70.8 µM [inhibitor, single point]
5 | COc1ccc(N=C2C(=Nc3ccc(OC)cc3)N(c3ccc(N(C)C)cc3)C(=S)N2c2ccc(OC)cc2)cc1 | active: 1.58 µM
6 | CCOc1cc(NC(=S)NCC2CCCO2)c(OCC)cc1NC(=O)c1ccc(C)cc1 (stereo not given) | inconclusive: 31.6 µM [inhibitor, full curve, poor fit]
7 | CCn1c(CN2CCN(C)CC2)nc2cc(NC(=O)c3cc(OC)c(OC)c(OC)c3)ccc21 | inactive
8 | Cc1cccc(C)c1-n1c(C)nn(-c2ncc(C(F)(F)F)cc2Cl)c1=O | inactive
9 | Cc1cc(/C=C2\SC(=S)NC2=O)c(C)n1-c1cccc(O)c1 | active: 50.1 µM
10 | COc1ccc(N2CCN(C(=O)Nc3ccccc3C)CC2)cc1 | inconclusive: 79.4 µM [inhibitor, single point]
11 | O=S(=O)(c1ccc(NC(=S)NN=C2CCCCC2)cc1)N1CCOCC1 | inactive
12 | CCOc1ccccc1C(=O)NCC(c1ccc(N(C)C)cc1)N1CCCC1 (stereo not given) | inconclusive: 44.7 µM [inhibitor, partial curve]
13 | COc1ccc(Cn2ccnc2)cc1Br | active: 50.1 µM
14 | O=C(N/N=C/C=C\c1ccco1)c1cccs1 | active: 44.7 µM
15 | Cc1cc(C(=O)CSc2nnc(C3COc4ccccc4O3)n2C)c(C)n1-c1ccc(F)cc1 (stereo not given) | inconclusive: 70.8 µM [inhibitor, partial curve]
16 | Cc1ccccc1NC(=O)c1ccc(CNS(=O)(=O)c2ccc3c(c2)C(C)(C)C(=O)N3C)cc1 | inactive
17 | CCOC(=O)c1c(NC(C)=O)sc2c(OCC(O)CN(CC)CC)c(Br)ccc12 (stereo not given) | inconclusive: 70.8 µM [inhibitor, single point]
18 | CN(C(=O)c1cccc(S(=O)(=O)N2CCOCC2)c1)c1c(N)n(Cc2ccccc2)c(=O)[nH]c1=O | inactive
19 | COc1cccc(C2=CC(c3ccccc3)n3nnnc3N2)c1 (stereo not given) | inactive
20 | Cc1cccc(C(=O)Nc2nnc(S(=O)(=O)N3c4ccccc4CC3C)s2)c1 (stereo not given) | inconclusive: 89.1 µM [inhibitor, single point]
21 | CCc1ccc2c(c1)C1(C(=O)N2)N2CCCC2C(C(=O)c2ccc3ccccc3c2)C12C(=O)Nc1ccccc12 (stereo not given) | inconclusive: 25.1 µM [inhibitor, full curve]
22 | COc1ccc(N(C)C(=O)c2cc3c(s2)-c2ccccc2OC3)c(OC)c1 | inconclusive: 79.4 µM [inhibitor, single point]
23 | O=[N+]([O-])c1ccc(N/N=C2/CCCCC2c2ccccn2)cc1 (stereo not given) | inconclusive: 89.1 µM [inhibitor, single point]

Row | Structure (SMILES) | Potency
24 | CC(C)(C)c1nn(-c2ccccc2)c2[nH]c(=O)c(CNc3ccc4c(c3)OCCO4)cc12 | active: 1.12 µM
25 | CCN(CC)c1ccc(NC(=O)COC(=O)C2CCN(c3ccc(C(F)(F)F)cn3)CC2)cc1 | inconclusive: 2.82 µM [inhibitor, single point]
26 | CN(CC(=O)NCc1cccc(F)c1)C(=O)c1ccco1 | inactive
27 | Cc1c(C(=O)NCc2ccccc2)oc2c1-c1[nH]ncc1CC2 | inconclusive: 89.1 µM [inhibitor, single point]
28 | CC(=O)c1cn(CC(=O)Nc2c(C)cccc2C)c2ccccc12 | inconclusive: 89.1 µM [inhibitor, single point]
29 | O=C(Nc1ccc(F)c(Cl)c1)N1CCCCCC1 | inactive
30 | CCOC(=O)c1c2n(c3c(NCc4ccccc4)ncnc13)CCCC2 | inconclusive: 89.1 µM [inhibitor, single point]
31 | Cc1ccc(CN(Cc2cccnc2)C(=O)CN2C(=O)COc3ccccc32)o1 | inactive
32 | c1ccn(-c2ccc(-c3ccn[nH]3)cc2)c1 | inconclusive: 50.1 µM [inhibitor, partial curve]
33 | O=C(O)c1cccc([N+](=O)[O-])c1C(=O)Nc1cccc2ccccc12 | inconclusive: 63.1 µM [inhibitor, partial curve, poor fit]
34 | Cc1ccc(S(=O)(=O)NNC(=O)c2ccccc2O)cc1 | inactive
35 | COc1cc(C(CCN2CCCC2)c2c(OC)cc(OC)c3c(-c4ccccc4)cc(=O)oc23)cc(OC)c1OC (stereo not given) | inactive
36 | CCC(=O)N1c2ccc(S(=O)(=O)NCc3ccco3)cc2CC1C (stereo not given) | inconclusive: 50.1 µM [inhibitor, partial curve]
37 | CN1CCN(NC(=O)CN2C(=O)/C(=C/c3ccccc3F)SC2=S)CC1 | inconclusive: 89.1 µM [inhibitor, single point]
38 | Cc1[nH]c2ccccc2c1CN1CCc2ccccc2C1 | inconclusive: 28.2 µM [inhibitor, single point]
39 | O=C(Nc1ncc([N+](=O)[O-])s1)C1COc2ccccc2O1 (stereo not given) | inactive
40 | O=C(C1=C(O)C(=O)N(CCCN2CCOCC2)C1c1ccccn1)c1cc2ccccc2o1 (stereo not given) | inconclusive: 79.4 µM [inhibitor, single point]
41 | CCN(CC)S(=O)(=O)c1ccc2c(c1)c(=O)c(C(=O)NCc1ccco1)cn2C | inconclusive: 70.8 µM [inhibitor, single point]
42 | Cc1ccc(NC(CNS(=O)(=O)c2ccc(Cl)cc2)c2ccccc2)cc1 (stereo not given) | inconclusive: 44.7 µM [inhibitor, partial curve]
43 | O=C(/C=C\Nc1ccccc1Br)c1ccc2c(c1)OCO2 | inconclusive: 79.4 µM [inhibitor, partial curve]
44 | CCSc1nc2c(c(=O)n1Cc1ccccc1)SC(C)C2 (stereo not given) | inconclusive: 39.8 µM [inhibitor, full curve, poor fit]
45 | C=CCN(Cc1cc(OC)ccc1OC)C(=O)c1cc2ccc(OC)cc2[nH]1 | inconclusive: 39.8 µM [inhibitor, full curve, poor fit]
